The source of these data is ChEMBL document CHEMBL4888484, “Replenishing the malaria drug discovery pipeline: Screening and hit evaluation of the MMV Hit Generation Library 1 (HGL1) against asexual blood stage Plasmodium falciparum ,using a nano luciferase reporter read-out” (2022).

The campaign covered roughly 150,000 compounds. About 540 (0.36%) showed an effect of 50% or more. Some of the results follow.

By % Inhibition is commonly meant the drop in the measured response relative to a control, in per cent.

The test has as its system Plasmodium falciparum. The experiment in a line: Primary screen in NF54 nanoGlo assay, in single point, at 2uM, 72h; a lower Z score goes with more inhibition. It counts as functional, Erythrocyte. The following applies: timepoint 72 hour.
Take `Cc1cccc2c(N3CCCC3)nc(CNS(=O)(=O)N(C)C)nc12`: the “% Inhibition” value is given as 0% and the Z score is -0.01.

Turning to `CNC(=O)C1CCCN(C(=O)C2CCC=CO2)C1` (stereo unspecified), the “% Inhibition” value is on record as 4% and the Z score is -0.79.

Regarding `COC(=O)[C@H](C)N(C(=O)CC1CCCCC1)c1c(C)cccc1C`, the “% Inhibition” value is -13% and the Z score is given as 2.46.

For `COc1ccc(NC(=O)C(=O)c2cccn2Cc2ccc(C)c(C)c2)cc1Cl`, the “% Inhibition” value was -9% and the Z score was 1.08.

`CS(=O)(=O)c1ccc(NC(=O)c2nnn(-c3ccccc3)n2)cc1`: the “% Inhibition” value is recorded as -16% and the Z score is 3.04.

As for `COC1(C(=O)Nc2ccn(-c3ccncc3)n2)CCCCC1`, the “% Inhibition” value was -12% and the Z score was found to be 1.53.

With `CCCN(CC(=O)N(Cc1ccc(Cl)cc1)C1CCN(C(=O)NCC)CC1)S(=O)(=O)c1ccc(C)cc1`, the “% Inhibition” value is -16% and the Z score came out at 2.17.

Take `CCNC(=O)N(C)c1cccc(NC(=O)N2C3CCC2CC2(CC2)C3)c1`: the “% Inhibition” value came out at 26% and the Z score is -2.89.

On to `N#Cc1cnn(C(=O)[C@@H]2CCN(c3cc(F)cc(F)c3)C2=O)c1N`, for which the “% Inhibition” value is -1% and the Z score is given as 0.22.

As to `CC[C@H]1CCN(Cc2ccc(C(F)(F)F)nc2)C1`, the “% Inhibition” value is on record as -7% and the Z score was 0.7.

For `C[C@@H](C(=O)N1CCC2(CCc3ccccc3O2)CC1)n1cnc2c(N)ncnc21`, the “% Inhibition” value is 8% and the Z score is -0.94.

With `C=C(C)CN(C)CC(=O)Nc1ccc(F)cc1Cl`, the “% Inhibition” value came to 0% and the Z score turned out to be 0.05.

Take `O=S(=O)(NCC1(OCCO)CCCC1)c1ccc(-n2cccn2)cc1`: the “% Inhibition” value is reported as 7% and the Z score is recorded as -0.76.

`O=C(Nc1cc(F)c(F)c(F)c1)N1CCC(n2ccnn2)CC1`: the “% Inhibition” value was -7% and the Z score was found to be 0.67.

As for `Cc1ccnc2sc(C(=O)N3COCC3(C)C)c(C)c12`, the “% Inhibition” value is recorded as -9% and the Z score is given as 1.13.

`CCOc1cc2c(cc1CN1Cc3[nH]cnc3C[C@H]1C(=O)O)CCC2`: the “% Inhibition” value is -3% and the Z score came out at 0.54.

In the case of `O=C(NCCCOCC(F)(F)F)NC1CCCC2OCCC12` (stereo unspecified), the “% Inhibition” value is -14% and the Z score is recorded as 1.44.

On to `CC(C)(C)NS(=O)(=O)Cc1cccc(NCc2cccs2)c1`, for which the “% Inhibition” value is on record as -8% and the Z score is recorded as 1.12.

With `Cc1noc(C)c1C(=O)N1CCc2cc(Br)ccc21`, the “% Inhibition” value amounted to 12% and the Z score is given as -2.07.

Turning to `CCOc1ccc(NS(=O)(=O)c2ccc3c(c2)OCCCO3)cc1S(=O)(=O)N1CCCCC1`, the “% Inhibition” value was -5% and the Z score was 0.85.

With `Cc1nc(CC(=O)N[C@@H](C)c2ccccc2)sc1C(=O)NCC(C)C`, the “% Inhibition” value is on record as -3% and the Z score was 0.38.

On to `Fc1cccc(-c2noc(C3(c4ccc(Cl)cc4)CCOCC3)n2)c1`, for which the “% Inhibition” value is given as -1% and the Z score was determined as 0.26.

On to `Cn1ncc2c(=O)[nH]c(CN3CCO[C@@H](CCCc4ccccc4)C3)nc21`, for which the “% Inhibition” value is on record as -1% and the Z score is reported as 0.11.

For `Cc1n[nH]c(C)c1[C@H](C)NC(=O)c1cccn1C(C)C`, the “% Inhibition” value is -17% and the Z score was 1.81.

As to `O=C(NCc1ccco1)C(=Cc1ccc(Cl)c(Cl)c1)C(=O)NCc1ccco1`, the “% Inhibition” value is -3% and the Z score is 0.44.

For the molecule `Cc1nc(N2CCC[C@H](NCc3ccc(F)cc3F)CC2)nc2ccc(F)cc12`, the “% Inhibition” value is 10% and the Z score is -1.38.

As for `O=C(Nc1cnc(-n2ccnc2)nc1)c1ccc(F)cc1`, the “% Inhibition” value is reported as -18% and the Z score is reported as 2.84.

`O=C(c1cc2nc(-c3ccco3)cc(C(F)(F)Cl)n2n1)N1CCCc2ccccc21`: the “% Inhibition” value is listed as -13% and the Z score is 1.66.

In the case of `Cc1ccc(-c2ccnn2C)cc1NC(=O)NCc1ccccn1`, the “% Inhibition” value is recorded as -11% and the Z score is recorded as 1.06.

`CCN(CC)S(=O)(=O)NCc1ccnc(OC)c1`: the “% Inhibition” value is -7% and the Z score came out at 1.32.

With `C[C@@H](c1cccnc1)N(CC1CCOCC1)S(=O)(=O)c1cncc(Cl)c1`, the “% Inhibition” value came out at 9% and the Z score is reported as -0.88.

As to `CC(C)Cc1cc(C(=O)NCCc2nnc3ccccn23)cc(O)n1`, the “% Inhibition” value is recorded as -26% and the Z score worked out at 3.27.

Consider `Cc1c[nH]c(C(=O)N2CC[C@@]3(CCCN(CCCc4ccccc4)C3)C2)n1`, for which the “% Inhibition” value is -10% and the Z score amounted to 1.61.

With `O=C(NCc1cncc(C2CC2)c1)c1ccncc1F`, the “% Inhibition” value is listed as -8% and the Z score was found to be 0.92.

Consider `CC(C)(C)N1CC2(O)OCCC2(C)C1=O` (stereo unspecified), for which the “% Inhibition” value amounted to 29% and the Z score is reported as -3.27.

For `C[C@H]1CNC(=O)CCN1C(=O)c1cc(Cn2cnc3ccccc32)[nH]n1`, the “% Inhibition” value was -13% and the Z score stood at 1.44.

Consider `Cn1c(C(=O)N2CCC3(CC2)C[C@H](O)c2ccccc2O3)c[nH]c1=O`, for which the “% Inhibition” value was -11% and the Z score stood at 2.06.

As for `COc1ncccc1-c1cc(C)ccc1N1CCOC1=O`, the “% Inhibition” value is on record as -18% and the Z score came to 2.26.

As to `C=CCN(CC(F)(F)F)C(=O)c1ccnc(C(=O)O)c1`, the “% Inhibition” value is -18% and the Z score is on record as 2.15.

For the molecule `Cc1nc(C2CCCC2)n(C[C@H]2COCCO2)n1`, the “% Inhibition” value is -7% and the Z score was determined as 1.37.

Take `CC(C)CCN(C(=O)[C@H]1CCN(C)C(=O)C1)C1CC1`: the “% Inhibition” value is listed as -20% and the Z score is given as 3.18.

For `CCN1CCC[C@@H]1CNC(=O)c1cccc(-c2nc(C)cc(NC)n2)c1`, the “% Inhibition” value is recorded as 10% and the Z score is given as -1.31.

As for `NC(=O)CCn1cc(/C=C/C2CCCCC2)cn1`, the “% Inhibition” value was -6% and the Z score worked out at 1.16.

For `CCOc1ncccc1C(=O)N(C)[C@H]1CCCN(C(=O)c2cnnn2CC)C1`, the “% Inhibition” value is -10% and the Z score is recorded as 1.52.

On to `CCc1nc(CN(C)Cc2cnc(N(C)C)s2)no1`, for which the “% Inhibition” value is given as -5% and the Z score stood at 0.75.

Take `COc1ccc2[nH]c([C@H]3CCN(Cc4ccccn4)C3)nc2c1`: the “% Inhibition” value was 16% and the Z score is -1.91.

With `Cc1cnc(CN2C[C@]3(CCCN(C(=O)c4ccon4)C3)CCC2=O)cn1`, the “% Inhibition” value is -6% and the Z score came to 1.02.

Regarding `O=C(Nc1cccc(NC(=O)c2cccnc2)n1)c1cccnc1`, the “% Inhibition” value turned out to be 30% and the Z score was -3.84.

As for `Cc1oc2ncn(C)c(=O)c2c1C(=O)N1CCN(c2ccccc2)CC1`, the “% Inhibition” value is given as -8% and the Z score came to 1.55.

For the molecule `COc1cccc(-c2nc(S(=O)(=O)c3ccc4c(c3)OCCO4)c(NCc3cccnc3)o2)c1`, the “% Inhibition” value is -4% and the Z score amounted to 0.55.

`Cc1ccc([C@H](CCO)NC(=O)CCn2nnnc2C)cc1`: the “% Inhibition” value was -10% and the Z score is given as 1.98.

`COc1ccc(CNC(=O)[C@@H]2OCCN(C)[C@H]2c2ccccc2)c(OC)c1`: the “% Inhibition” value is -9% and the Z score was determined as 1.63.

With `Brc1ccc(-c2nc3ccc(Cc4ccc5nc(-c6ccc(Br)cc6)c(-c6ccc(Br)cc6)nc5c4)cc3nc2-c2ccc(Br)cc2)cc1`, the “% Inhibition” value is -9% and the Z score was 1.53.

As for `O=C(Nc1ccccc1)Nc1nccn(-c2ccc(Br)cc2)c1=O`, the “% Inhibition” value is on record as -2% and the Z score is 0.3.

`Cc1nsc(N2CCCC[C@H](N3CCCC3)C2)n1`: the “% Inhibition” value is given as -12% and the Z score came out at 1.49.

On to `Cn1ccc(C(=O)Nc2cc(F)ccc2N2CCCCC2)cc1=O`, for which the “% Inhibition” value is recorded as -12% and the Z score amounted to 1.55.

Turning to `CCOc1ccc(OCc2nc(CNC(=O)N(C)C)n(C(C)C)n2)cc1`, the “% Inhibition” value is -6% and the Z score is 0.86.

Take `CC[C@@H](C(=O)Nc1cccc(Cl)c1)n1nc(-c2ccc(OC)cc2)c2c(C)onc2c1=O`: the “% Inhibition” value is listed as -2% and the Z score was determined as 0.25.

With `COc1ccccc1Cc1n[nH]c([C@H]2CC23CCC3)n1`, the “% Inhibition” value is -5% and the Z score is listed as 0.67.

On to `CCN1CC(=O)N(c2cc(-c3cccnc3)ccc2C)C1=O`, for which the “% Inhibition” value was found to be 0% and the Z score is recorded as -0.01.

For `O=C(O)c1nnn2c1CO[C@H](c1ccccc1)C2`, the “% Inhibition” value is -4% and the Z score worked out at 0.45.

`CCn1ncnc1[C@H](C)NC(=O)Cc1cc(C)no1`: the “% Inhibition” value is -24% and the Z score was found to be 2.2.

As for `Cc1cnc(CN2C[C@]3(CCCN(S(=O)(=O)C4CC4)C3)CCC2=O)cn1`, the “% Inhibition” value was -15% and the Z score amounted to 1.96.

Regarding `CCc1nnc(CNC(=O)N(Cc2ccccc2OC)C2CC2)s1`, the “% Inhibition” value is 1% and the Z score is -0.16.

With `COc1ccc(-c2ncc(C(=O)N3CCC(C)CC3)c(N3CCC(Cc4ccccc4)CC3)n2)cc1`, the “% Inhibition” value was -15% and the Z score turned out to be 1.69.

`Cc1ccc(N(C)Cc2nc(CC(C)C)no2)c(C)c1`: the “% Inhibition” value is recorded as -6% and the Z score came to 0.59.

For `COc1ccsc1CNc1ccc2[nH]ncc2c1`, the “% Inhibition” value worked out at 35% and the Z score is -1.06.

Consider `Cc1cc(Br)cc(C(=O)NC(C)(C)C(=O)N(C)C)c1`, for which the “% Inhibition” value is on record as -6% and the Z score came out at 0.66.

`CC(=O)Nc1c(S(=O)(=O)c2ccc(F)cc2)c(C)c(C)n1CC(C)C`: the “% Inhibition” value was -4% and the Z score was 0.53.

Regarding `COc1ccc(-c2nn(-c3ccccc3C)cc2CN(C)C[C@H]2COCCO2)cc1F`, the “% Inhibition” value is recorded as -7% and the Z score is listed as 1.33.

For the molecule `Cc1nc(C(=O)NCC2CCN(Cc3nnc(C)s3)CC2)cs1`, the “% Inhibition” value was -10% and the Z score worked out at 1.27.

Take `O=C(Cc1nnc(-c2ccsc2)o1)Nc1ccc(Cl)cc1Cl`: the “% Inhibition” value is listed as -6% and the Z score was 0.59.

With `Cc1ccc(CCC(=O)Nc2nc(-c3ccc4c(c3)NC(=O)[C@H](C)O4)c(C)s2)cc1`, the “% Inhibition” value was -7% and the Z score was found to be 1.14.

Turning to `O=C(N[C@@H]1c2ccccc2C[C@H]1O)c1cccc(-c2cn[nH]c2)c1`, the “% Inhibition” value is reported as -12% and the Z score was 2.

`COc1ccc(C(=O)Nc2ccc(-n3nc(OC)nc3-c3ccc4c(c3)OCO4)cc2)cc1`: the “% Inhibition” value is -14% and the Z score worked out at 2.72.

For `CCN1C(=O)CO[C@H](C(=O)Nc2ccc3c(n2)CCCC3=O)[C@H]1c1cnn(C)c1`, the “% Inhibition” value is listed as 1% and the Z score is listed as -0.08.

For the molecule `COc1ccc(CNC(=O)N2CC[C@H](Oc3nc(C)cc(C)n3)C2)cc1`, the “% Inhibition” value is -12% and the Z score amounted to 1.82.

Consider `Cn1c([C@H]2CCCN(C(=O)NCCN3CCCC3)C2)nc2ccccc21`, for which the “% Inhibition” value is -6% and the Z score was found to be 1.31.

In the case of `O=C(CCn1cnc2cc(S(=O)(=O)N3CCCC3)ccc21)Nc1nc2ccccc2s1`, the “% Inhibition” value is -10% and the Z score was determined as 1.25.

`CC(C)n1cc2c(n1)C[C@@H](NC(=O)c1cc3cccnc3s1)CC2`: the “% Inhibition” value is on record as -11% and the Z score is on record as 1.07.

In the case of `Cc1ccc(CCNC(=O)c2ccc(-n3nc(OCc4cccc(F)c4)ccc3=O)cc2)cc1`, the “% Inhibition” value is -1% and the Z score came out at 0.25.

`CNC(=O)C1CN(Cc2nc(-c3ccccc3)cs2)C1`: the “% Inhibition” value is 0% and the Z score is reported as 0.06.

As to `CCc1ccc(C2CC(C(=O)NCc3ccco3)CN(C(=O)c3ccc(F)cc3)C2)cc1` (stereo unspecified), the “% Inhibition” value was -15% and the Z score was 2.84.
